Laboratory results as given in the GPR68 mutational scans of Howard et al. (2025).
Scores whose standard error is large were omitted. Not listed are two conditions whose scores span a narrow range. In variant names, del marks residues removed and ins residues inserted between the two positions. For some of these results: The data file names ogerin without a concentration.

B1: GPR68, Q15743 (parent)
chain: MGNITADNSSMSCTIDHTIHQTLAPVVYVTVLVVGFPANCLSLYFGYLQIKARNELGVYLCNLTVADLFYICSLPFWLQYVLQHDNWSHGDLSCQVCGILLYENIYISVGFLCCISVDRYLAVAHPFRFHQFRTLKAAVGVSVVIWAKELLTSIYFLMHEEVIEDENQHRVCFEHYPIQAWQRAINYYRFLVGFLFPICLLLASYQGILRAVRRSHGTQKSRKDQIQRLVLSTVVIFLACFLPYHVLLLVRSVWEASCDFAKGVFNAYHFSLLLTSFNCVADPVLYCFVSETTHRDLARLRGACLAFLTCSRTGRAREAYPLGAPEASGKSGAQGEEPELLTKLHPAFQTPNSPGSGGFPTGRLA

Tests used:
[1] = variants of: B1; experiment: cAMP reporter score (Enrich2 score, wild type = 0); higher = more signal; HEK293T, FACS bins
[2] = variants of: B1; experiment: surface expression score (Enrich2 score, wild type = 0); higher = more signal; HEK293T, FACS bins

Variant	cAMP reporter score ([1]; pH 5.5)	cAMP reporter score ([1]; pH 6)	cAMP reporter score ([1]; pH 6, modulator: ogerin)	cAMP reporter score ([1]; pH 6.5, modulator: ogerin)	surface expression score [2]
G355A	0.991	-0.835	0.923	0.827	0.613
G355C	0.898	0.89	0.124	0.972	0.168
G355D	0.594	0.744	0.262	1.06	1.76
G355E	0.615	-0.236	0.684	0.453	0.826
G355F	0.889	0.485	1.37	0.646	0.273
G355H	0.262	0.496	0.203	0.498	-0.036
G355I	0.424	-0.276	0.085	-0.073	0.819
G355K	1.32	0.563	1.01	1.62	0.968
G355L	0.082	0.459	0.035	-0.204	0.114
G355M	-0.151		0.855	0.444	0.448
G355P	0.5	-0.153	0.476	0.255	1.75
G355Q	1.12	0.222	0.281	0.486	1.13
G355R	0.018	0.998	0.041	0.459	-0.273
G355S	-0.555		-0.65	-0.065	-0.161
G355T	0.073	0.089	-0.853	0.173	-0.103
G355V	-0.751	-0.145	-0.66	-0.214	-0.334
G355W	0.246	-0.598	0.292	-0.748	-0.292
G355Y	-0.262	-0.543	-0.385	-0.942	-0.604
G355_G357del	0.089	-0.392	0.505	0.085	0.235
S356_G358del	-0.091	0.688	0.922	0.904	-0.142
G357A	0.234	-0.218	0.59	1.06	1.07
G357C	1.03	0.663	1.15	1.54	0.617
G357D	-0.204	0.144	-0.482	-0.26	-0.006
G357E	-0.631	1.91	0.53	-0.853	-1.08
G357F	0.601	0.876	0.868	1.09	0.084
G357H	1.09	1.77	1.42	0.68	0.924
G357I	0.857	0.423	0.924	0.326	0.595
G357K	0.675	0.588	0.313	0.411	1.47
G357L	-0.205	1.26	-0.085	-0.171	-0.421
G357M	1.21	0.479	1.35	0.281	0.417
